Measurements reported in PubChem BioAssay AID624418 (National Center for Advancing Translational Sciences (NCATS), 2012).
Among all 410,000 compounds or so, about 530 (0.13%) were called active. The inconclusive results got no clear call from the source; some entries with a clear call stand among them for comparison. Calls follow the shape of the dose curve; as a rule, active = well fitted inhibition curve with a large enough effect; inconclusive = small, poorly fitted or top-dose-only effect, or another doubt; inactive = no such curve, though single readings can be large or run the other way. Where the call is inconclusive, the potency comes from a doubtful curve fit.

Test: qHTS of GLP-1 Receptor Inverse Agonists: Cytotox Screen
Conditions: HEK293 cAMP-luciferase reporter cells, luminescence, 24 h; activity change, negative = inhibition: at 38.3 µM (top of the series) unless noted
Outline: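 A 23 nL compound transfer followed 12 hours of cell culture at 37 deg C; exposure then lasted 24 hr. Luciferase assay detection reagent was dispensed and plates read for luminescence after a 12 min room-temperature wait.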
% is scaled to controls: 0 for no effect and ±100 for the full control effect; potency is read from the fitted curve at half-maximal effect.

Row | SMILES | Potency | activity change, negative = inhibition
1 | Cc1ccccc1Cn1c(=N)n(CC(O)c2ccco2)c2ccccc21 (centres undefined) | inconclusive: 28.2 µM [inhibitor, single point] | 
2 | COc1ccc(-c2nnc(SCc3nnc(-c4ccccc4)o3)n2-c2ccccc2)cc1 |  | inactive: -3.01%
3 | O=C(NCc1ccccc1Cl)C1CCCN(S(=O)(=O)c2cccc3nsnc23)C1 (centres undefined) | inconclusive: 4.47 µM [inhibitor, full curve, poor fit] | 
4 | NC(=O)c1sc2nc3c(cc2c1N)CCC3 |  | inactive: -19.7%
5 | Cc1ccc(-c2csc3ncnc(SCC(=O)NCc4ccc5c(c4)OCO5)c23)cc1 | inconclusive: 2 µM [inhibitor, partial curve, poor fit] | 
6 | CC(NS(=O)(=O)c1ccccc1)C(=O)Nc1ccc(S(N)(=O)=O)cc1 (centres undefined) | inconclusive: 5.01 µM [inhibitor, partial curve, poor fit] | 
7 | COc1ccc(CN(C)C[C@@H]2OCCCC[C@H](C)Oc3ccc(NC(=O)Nc4ccc(F)cc4)cc3C(=O)N([C@H](C)CO)C[C@H]2C)cc1 | inconclusive: 20 µM [inhibitor, single point] | 
8 | CC(C)c1ccc(C(=O)NCCCN2CCN(CCCNC(=O)c3ccc(C(C)C)cc3)CC2)cc1 | inconclusive: 12.6 µM [inhibitor, partial curve, poor fit] | 
9 | O=c1cc(-c2ccccc2Cl)oc2c(NS(=O)(=O)c3cc(Cl)cc(Cl)c3O)ccc(O)c12 | inconclusive: 7.08 µM [inhibitor, partial curve, poor fit] | 
10 | O=C(C1CC1)N1N=C(c2cccc(Br)c2)CC1(O)C(F)(F)F (centres undefined) | inconclusive: 3.16 µM [inhibitor, single point] | 
11 | CSC1=NC2(CCN(C(=O)NC3CCCCC3)CC2)N=C1c1ccc(C)cc1 |  | inactive: 15.9%
12 | CCN1CCCC1CN(Cc1cc2ccc(C)cc2[nH]c1=O)C(=S)Nc1ccc(OC)cc1 (centres undefined) | inconclusive: 11.2 µM [inhibitor, partial curve] | 
13 | CCOC(=O)CC1NCCc2c1[nH]c1ccc(OC)cc21 (centres undefined) | inconclusive: 11.2 µM [inhibitor, single point] | 
14 | COc1ccc(/C=N/NC(=O)c2c(C)nc3ccc(Br)cn23)cc1OC | inconclusive: 20 µM [inhibitor, partial curve, poor fit] | 
15 | O=[N+]([O-])c1cccc(-c2csc(N/N=C/c3cccc(O)c3)n2)c1 | inconclusive: 12.6 µM [inhibitor, single point] | 
16 | O=S(=O)(Nc1nc(SCc2ccc(Cl)cc2)n[nH]1)c1ccc(F)cc1 |  | inactive: -8.65%
17 | O=S(=O)(c1ccc(Cl)cc1)c1snnc1-c1ccccc1 | inconclusive: 14.1 µM [inhibitor, single point] | 
18 | Cc1ccc(-n2c3nc(=O)[nH]c(=O)c-3cc3c(C)nn(-c4ccccc4)c32)cc1Cl |  | inactive: 0.275%
19 | Fc1ccc(NC(=S)Nc2cccc3ccccc23)cc1F | inconclusive: 10 µM [inhibitor, single point] | 
20 | COc1cccc(-c2nnn(CC(=O)Nc3cc(OC)c(NC(=O)c4ccco4)cc3OC)n2)c1 | inconclusive: 10 µM [inhibitor, single point] | 
21 | COC(=O)c1c(C)oc2ccc(N(C(C)=O)S(=O)(=O)c3ccccc3)cc12 | inconclusive: 3.98 µM [inhibitor, partial curve, poor fit] | 
22 | Cc1c(O)ccc(/C(Cc2ccc3ccccc3n2)=N\N)c1O | inconclusive: 11.2 µM [inhibitor, single point] | 

Row | SMILES | Potency | activity change, negative = inhibition
23 | Cc1ccc(C(=O)Nc2cc(C)c(OCC(=O)N3CCOCC3)c(C)c2)cc1 |  | inactive: 23.3%
24 | COc1cc(/C=N/Nc2nc(Nc3ccccc3)nc(-n3nc(C)cc3C)n2)cc(OC)c1OC | inconclusive: 5.01 µM [inhibitor, full curve, poor fit] | 
25 | CN1CCN(c2ccccc2NC(=O)c2ccc(OCc3ccccc3)cc2)CC1 | inconclusive: 10 µM [inhibitor, partial curve, poor fit] | 
26 | CCCCCCCCC(=O)NC(NC(=S)N1CCOCC1)C(Cl)(Cl)Cl (centres undefined) | inconclusive: 17.8 µM [inhibitor, single point] | 
27 | O=C(Cn1cnc([N+](=O)[O-])n1)N/N=C/c1cc(Cl)ccc1O |  | inactive: -21%
28 | COc1ccc(C(=O)NC(=S)N2CCN(C)CC2)cc1Br | inconclusive: 5.62 µM [inhibitor, full curve, poor fit] | 
29 | CCC(C)(C)c1ccc(OCC(=O)N(C)C)c(C(C)(C)CC)c1 | inconclusive: 11.2 µM [inhibitor, single point] | 
30 | C=CCn1c(-c2cc3c(s2)CCC(CC)C3)n[nH]c1=S (centres undefined) | inconclusive: 28.2 µM [inhibitor, single point] | 
31 | Cc1cc(NCCCn2ccnc2)n2nc(C)c(-c3ccc(Cl)cc3)c2n1 | inconclusive: 11.2 µM [inhibitor, partial curve, poor fit] | 
32 | Oc1ccccc1/C=N/Nc1cc(N2CCCC2)nc(N2CCCC2)n1 | inconclusive: 12.6 µM [inhibitor, single point] | 
33 | Cc1c(C(=O)N2C[C@@H](C)O[C@@H](C)C2)oc2c(F)cccc12 |  | inactive: 3.14%
34 | COc1ccccc1OCC(O)Cn1c(=N)n(CCN2CCCCC2)c2ccccc21 (centres undefined) | inconclusive: 5.01 µM [inhibitor, full curve] | 
35 | C/C(=N\Nc1nccnc1Cl)c1ccc(O)c(C)c1 | inconclusive: 12.6 µM [inhibitor, single point] | 
36 | Cc1ccc(N(C)C(=O)N2CCN(S(=O)(=O)c3ccc(C)cc3)CC2)cc1 | inconclusive: 11.2 µM [inhibitor, single point] | 
37 | Cc1cc(/C=N/Nc2ccc([N+](=O)[O-])cn2)c(C)n1-c1cccc(C(=O)O)c1 | inconclusive: 11.2 µM [inhibitor, single point] | 
38 | Clc1ccc2ccc3cccnc3c2n1 | inconclusive: 28.2 µM [inhibitor, single point] | 
39 | COc1ccccc1N(Cc1ccccc1)S(=O)(=O)c1cccc(C(=O)NC2CC(C)(C)NC(C)(C)C2)c1 | inconclusive: 14.1 µM [inhibitor, single point] | 
40 | COC(=O)c1ccc(CNC(=O)CSc2nc3sc(C)c(C)c3c(=O)n2C)o1 | inconclusive: 14.1 µM [inhibitor, single point] | 
41 | COc1ccc(N2CCN(c3csc4ccc(Cl)cc4c3=O)CC2)cc1 |  | inactive: 23.4%
42 | COC(=O)C1=C(COc2ccccc2)NC(=O)NC1c1ccc2ccccc2c1 (centres undefined) | inconclusive: 28.2 µM [inhibitor, single point] | 
43 | COc1ccccc1N1CCN(C(=O)NCc2ccc(Cl)cc2)CC1 | inconclusive: 28.2 µM [inhibitor, single point] | 
44 | COc1ccc(CNCc2c(O)c(Cl)cc3c(C)c(C)c(=O)oc23)c(OC)c1 |  | inactive: 273%

Row | SMILES | Potency | activity change, negative = inhibition
45 | Cc1ccc(-n2nc(CO)c(C(=O)NCCCc3ccccc3)n2)cc1C |  | inactive: -4.64%
46 | Cc1ccc(C2=NN(C(=O)c3ccccc3F)C(c3ccccc3F)C2)cc1 (centres undefined) |  | inconclusive: -34.9% [inhibitor]
47 | CN(C)CCCNC(=S)N1CCN(c2nc(-c3ccccc3)cs2)CC1 | inconclusive: 28.2 µM [inhibitor, single point] | 
48 | COc1ccc(/C=N/NC(=O)c2ccc(NC(C)=O)cc2)cc1COc1ccc(F)cc1F |  | inactive: 0.707%
49 | O=C(COC(=O)CNC(=O)c1ccccc1)NCCc1ccccc1 | inconclusive: 11.2 µM [inhibitor, single point] | 
50 | CCOCCCNCc1ccc(OCc2ccccc2C)c(OC)c1 | inconclusive: 8.91 µM [inhibitor, partial curve, poor fit] | 
51 | O=S(=O)(Nc1ccc(O)c(Sc2nc3ccccc3s2)c1)c1ccc(F)cc1 |  | inactive: -21%
52 | O=C(NC(=S)N1CCCCCC1)c1cccc([N+](=O)[O-])c1 | inconclusive: 3.16 µM [inhibitor, partial curve, poor fit] | 
53 | CC(C)(C)c1[nH]nc2c1C(C1C=CCCC1)C(C#N)=C(N)O2 (centres undefined) | inconclusive: 10 µM [inhibitor, single point] | 
54 | Cc1cccc(-c2cc3nc(-c4ccccc4)cc(=O)n3[nH]2)c1 | inconclusive: 12.6 µM [inhibitor, single point] | 
55 | CCCOc1cccc(C(=O)Nc2cccc(-c3nc4ncccc4o3)c2C)c1 |  | inactive: -2.49%
56 | CC1(C)CC(=O)C2=C(C1)N1C(=C(C#N)C2c2ccccc2Cl)N=C(N)c2ccccc21 (centres undefined) | inconclusive: 28.2 µM [inhibitor, single point] | 
57 | CN(Cc1ccc(C#CCCO)cc1)CC1CCCN(CCc2ccc(Cl)cc2)C1 (centres undefined) | inconclusive: 28.2 µM [inhibitor, single point] | 
58 | BrC(=C\c1ccccc1)/C=N/Nc1nc2ccccc2[nH]1 | inconclusive: 28.2 µM [inhibitor, single point] | 
59 | CCC1CCCCN1CC(=O)Nc1cc(C)nn1-c1nc(C)cc(C)n1 (centres undefined) | inconclusive: 7.94 µM [inhibitor, partial curve, poor fit] | 
60 | CCN(CC)C(=O)/C(=C\c1ccc(Br)cc1)NC(=O)c1ccccc1OC | inconclusive: 28.2 µM [inhibitor, single point] | 
61 | CCCCCOC(=O)c1[nH]c2c(c1C)C(=O)C(C(=O)OC)C(C)C2 (centres undefined) | inconclusive: 28.2 µM [inhibitor, single point] | 
62 | COCC1CCN(C(=O)c2ccc3oc(CCCc4ccccc4)nc3c2)C1 (centres undefined) | inconclusive: 28.2 µM [inhibitor, single point] | 
63 | COc1ccc(NS(=O)(=O)c2cccc(NC(=O)c3ccc(Cl)nc3)c2)cc1 |  | inactive: -27.9%
64 | O=C(COc1ccccc1)N1CCN(c2nnc(-c3ccccc3)c3ccccc23)CC1 | inconclusive: 7.94 µM [inhibitor, partial curve] | 
